Details: Gallus gallus, 35 °C, GdnHCl, Fluorescence, Sodium acetate 0.1 M, reversible: yes

Lysozyme C wild type (sequence not shown)
denaturant m value (pH 3.5): 2.59 kcal/mol/M
denaturant midpoint (higher = more stable) (pH 3.5): 2.71 M
unfolding free energy (pH 3.5): 7.02 kcal/mol
denaturant m value (pH 4): 2.59 kcal/mol/M
denaturant midpoint (higher = more stable) (pH 4): 3.26 M
unfolding free energy (pH 4): 8.44 kcal/mol
denaturant m value (pH 4.5): 2.59 kcal/mol/M
denaturant midpoint (higher = more stable) (pH 4.5): 3.69 M
unfolding free energy (pH 4.5): 9.56 kcal/mol
denaturant m value (pH 5.5): 2.59 kcal/mol/M
denaturant midpoint (higher = more stable) (pH 5.5): 3.61 M
unfolding free energy (pH 5.5): 9.35 kcal/mol

Source: FireProtDB (doi:10.1021/bi00139a017)
